According to PubChem BioAssay AID1347073 (National Center for Advancing Translational Sciences (NCATS), 2019):
About 200 (0.44%) of roughly 45,000 compounds were called active. About 7% were inconclusive and are not listed. The call rests on the fitted dose curve; in most records, active means well fitted activation curve with a large enough effect; inconclusive means small, poorly fitted or top-dose-only effect; inactive means no such curve, though single readings can be large or run the other way. The list shows a part of the results.

Assay: qHTS of TDP-43 Inhibitors: NCGC Sytravon Library Screen; further: 0% is about no effect; nearly all actives have a fitted effect of over 55% in size
Conditions: yeast TDP-43 toxicity rescue, BacTiter-Glo growth, 24 h; series mostly up to 46.1 µM; growth rescue (activation): at the top concentration
Method in brief: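 TDP-43-expressing yeast, pregrown in raffinose, seeded at OD600 0.02 in galactose medium with compound for 24 hr at 30 deg C. Growth read by BacTiter-Glo luminescence, so rescue of toxicity appears as activation.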

Row | Structure (SMILES) | growth rescue (activation)
1 | OC1(c2ccc(OC(F)F)cc2)CSC(=Nc2cccnc2)N1Cc1ccco1 (stereo unspecified) | inactive: 27.5%
2 | Cc1cccc2nc(CSc3nc4ccccc4[nH]3)cn12 | inactive: 0.858%
3 | COc1ccc(C(C(=O)NC(C)(C)C)N(C(=O)CCC(=O)Nc2cc(C)on2)c2c(C)cccc2C)cc1 (stereo unspecified) | inactive: 5.3%
4 | CC(OC(=O)CCC(=O)N1CCN(S(=O)(=O)c2ccc3ccccc3c2)CC1)C(=O)NC(N)=O (stereo unspecified) | inactive: -13.6%
5 | COc1ccc(S(=O)(=O)N2CCN(Cc3cccs3)CC2)cc1OC | inactive: 29.7%
6 | COc1cc(/C=N/n2c(-c3ccccc3)n[nH]c2=S)cc(OC)c1O | inactive: 35.2%
7 | NS(=O)(=O)c1cccc(NC(=O)COC(=O)C2CCCCC2)c1 | inactive: 7.48%
8 | O=C(NCc1ccccc1)c1ccc2c(c1)N(Cc1ccccc1)C(=O)c1ccccc1S2(=O)=O | inactive: 21.4%
9 | CCCCCC(=O)NC(=S)Nc1cccc(-c2nc3ncccc3o2)c1 | inactive: -1.25%
10 | Cc1cc(=O)n2[nH]c(NCc3c(F)cccc3Cl)nc2n1 | inactive: -6.18%
11 | CC(C)C(OC(=O)c1cccs1)C(=O)NCCc1ccccc1 (stereo unspecified) | inactive: 15.6%
12 | O=C(CN1C(=O)S/C(=C/c2cccn2-c2ccc(O)cc2)C1=O)N1CCCC1 | inactive: 4.37%
13 | COC(=O)C1C(c2ccccc2)C(C(=O)O)C1c1ccccc1 (stereo unspecified) | inactive: 5.35%
14 | O=C(CN1C(=O)C2CCCCC2C1=O)Nc1cccc(C(F)(F)F)c1 (stereo unspecified) | inactive: 6.24%
15 | CC1CCCC(C)N1/N=C/c1cc(Br)cc(Br)c1O (stereo unspecified) | inactive: -3.13%
16 | O=C(/C=C/Nc1ccc([N+](=O)[O-])cc1)c1ccc(Br)cc1 | inactive: 14.1%
17 | CCOC(=O)c1cccc(OCC(O)CNCCOc2ccccc2F)c1 (stereo unspecified) | inactive: -13.5%
18 | CC(=O)Nc1ccc(S(=O)(=O)N(Cc2ccccc2)c2ccccc2F)cc1 | inactive: 2.23%
19 | CCOc1ccc(CC(=O)NNC(=O)NC2CCCCC2)cc1 | inactive: -8.73%
20 | O=C(NCc1ccccc1)C(c1c(F)cccc1Cl)N(C(=O)c1csnn1)C1CC1 (stereo unspecified) | inactive: -1.26%
21 | CCOc1ccc(N=Nc2ccc(O)c3ncccc23)cc1 | inactive: 20.8%
22 | NC(=O)C1CCN(CC(O)COCc2ccccc2Cl)CC1 (stereo unspecified) | inactive: -10.8%
23 | CCCCC(=O)Nc1cnc(NC(=O)c2ccco2)cc1C | inactive: -4.76%
24 | COc1ccccc1CNC(=O)[C@@H]1CCCN1S(=O)(=O)c1ccc(Cl)cc1 | inactive: 6.12%

Row | Structure (SMILES) | growth rescue (activation)
25 | CC1=C(C)CC(C(=O)N2CCN(Cc3ccc4c(c3)OCO4)CC2)C(C(=O)O)C1 (stereo unspecified) | inactive: -15.3%
26 | COc1ccc(C(=O)NNC(=O)Cc2nc3ccccc3n2C)cc1 | inactive: 11%
27 | COc1cccc(CN2CCN(C3CSCCSC3)CC2CCO)c1 (stereo unspecified) | inactive: -2.07%
28 | Cc1ccc(C)c(CN2C(=O)c3ccccc3S(=O)(=O)c3ccc(C(=O)N4CCOCC4)cc32)c1 | inactive: -5.56%
29 | O=C(O)c1ccccc1C(=O)NC1CCCc2ccccc21 (stereo unspecified) | inactive: 0.459%
30 | C=CCc1c(C)nc2ccc(C(=O)OCC)cc2c1Cl | inactive: 27.3%
31 | Cc1ccc(OCCCc2c(C)n[nH]c2C)cc1 | inactive: 14.8%
32 | Cc1cc(C)c(NC(=O)CCn2nnc3ccccc32)c(C)c1 | inactive: 7.3%
33 | O=S(=O)(c1cccs1)N1CCN(c2ccc(Cl)cc2)CC1 | inactive: -4.01%
34 | O=C(COC(=O)CSc1ccc(Cl)cc1)Nc1ccc2[nH]c(=O)[nH]c2c1 | inactive: -22.8%
35 | Cc1ccc(/C=C2\SC(=S)N(CCC(=O)NNS(=O)(=O)c3ccccc3)C2=O)cc1 | inactive: -13.7%
36 | Cc1ccc(Nc2c([N+](=O)[O-])c(=O)oc3ccccc23)cc1C | inactive: -14.1%
37 | Cc1cc2ccccc2n1CCNCc1c(C(=O)N2CCOCC2)nc2ccccn12 | inactive: 23.4%
38 | CCS(=O)(=O)Nc1ccc(C2=NN(C(=O)c3ccco3)C(c3ccc(Cl)o3)C2)cc1 (stereo unspecified) | inactive: -2.79%
39 | CSc1ccc(S(=O)(=O)N2CCC(C(=O)N3CCc4ccccc4C3)CC2)cc1 | inactive: 16.5%
40 | CCOC(=O)C1CCN(S(=O)(=O)c2cccc(C(=O)Nc3ccccc3)c2)CC1 | inactive: 6.5%
41 | CCC1(C)Cc2c(sc(NC(=O)CCC(=O)O)c2C#N)CO1 (stereo unspecified) | inactive: 16.2%
42 | Cc1ccc(C(=O)OCC(=O)NC2CC2)s1 | inactive: -5.08%
43 | O=C(O)c1cccc(S(=O)(=O)NCC2COc3ccccc3O2)c1 (stereo unspecified) | inactive: -9.49%
44 | COC(=O)c1c(NC(=O)c2ccccc2OC)sc(C(=O)N2CCOCC2)c1C | inactive: 2.09%
45 | COc1c(C)cc(Br)cc1C(=O)Nc1ccc(Cc2ccncc2)cc1 | inactive: 25.9%
46 | O=C(Nc1cc(Cl)ccc1O)C1CCCO1 (stereo unspecified) | inactive: 23.2%
47 | O=C(Nc1ccccc1C(=O)O)c1ccc(CN2C(=O)c3ccccc3C2=O)cc1 | inactive: 9.44%
48 | O=C(CSc1ncccc1C(=O)O)c1ccccc1F | inactive: -3.36%

Row | Structure (SMILES) | growth rescue (activation)
49 | CCOc1cc(C(N)=O)cc(Cl)c1OCC | inactive: 8%
50 | CCc1nc2c(OCc3ccc(OC(F)F)cc3)cccn2c1N(C)C(=O)c1ccco1 | inactive: 15.3%
51 | CSc1nc2nc3c(cc2c(=O)n1-c1ccccc1)COC(C)(C)C3 | inactive: 4.92%
52 | CC(C)O/C(=N/S(=O)(=O)c1ccc(Cl)cc1)c1ccccc1 | inactive: 13.3%
53 | Cc1cc(C)n(-c2ccc(C(=O)O)cc2[N+](=O)[O-])n1 | inactive: 2.55%
54 | COc1cccc(OC)c1C(=O)OCC(=O)NCC(C)C | inactive: -0.0418%
55 | CC1=C(C)/C(=N\OS(=O)(=O)c2ccc(C)cc2)C=CC1=O | inactive: -94.9%
56 | O=C(C1CCCC1)N1CCN(S(=O)(=O)c2ccc(Cl)cc2)CC1 | inactive: -0.249%
57 | Cc1noc(NS(=O)(=O)c2ccc(NC(=O)CC(C)C)cc2)c1C | inactive: -13.3%
58 | COCCNC(=O)C1(C)CCN(C(=O)c2cccnc2Oc2ccccc2)C1 (stereo unspecified) | inactive: 0.59%
59 | O=C(NCc1cccs1)c1ccccc1F | inactive: 30%
60 | C=CCn1c(C2CC2)n[nH]c1=S | inactive: -6.16%
61 | COCCSc1ccccc1C(=O)NCCc1ccccc1 | inactive: 17.6%
62 | Cc1ccc(Nc2n[nH]c(C)c2[N+](=O)[O-])cc1 | inactive: 8.32%
63 | COCCCNC(=O)CCc1nnc(Cc2ccc(-c3ccccc3)cc2)o1 | inactive: 6.12%
64 | COc1ccc(C(=O)NC(=S)N2CCCCC2)cc1[N+](=O)[O-] | inactive: 20.1%
65 | CC(C)(C)NC(=O)COc1ccc(CNCCc2ccccc2)cc1 | inactive: -2.63%
66 | Cc1sc2ncn(/N=C/c3ccco3)c(=O)c2c1C | inactive: 17%
67 | Cc1c(Cl)cnc(NC(=O)CSc2nnc(C)n2Cc2ccccc2)c1Cl | inactive: 24.7%
68 | Cc1ccccc1C(=O)Nc1cccc(C(=O)N/N=C/c2ccccn2)c1 | inactive: 11.4%
69 | Cc1ccccc1Nc1nc(N)nc(CSc2nnc3ccccn23)n1 | inactive: 25%
70 | O=C(CN1N=C(c2ccc(Cl)cc2)CCC1=O)NCc1cccnc1 | inactive: 6.39%
71 | CC(=O)Nc1ccc(S(=O)(=O)Nc2nc3ccccc3nc2Nc2cccc(S(N)(=O)=O)c2)cc1 | inactive: 9.15%
